# Assay results taken from the RNAGym collection of RNA variant scans (doi:10.1073/pnas.2313332121).
# Variants at the floor of the assay are shown more often than the library holds them.
# B1: TPR 5TU (parent)
# chain: GGAUCUUCUCGAUCUAACAAAAAAGACAAAUCUGCCACAAAGCUUGAGAGCAUCUUCGGAUGCAGAGGCGGCAGCCUUCGGUGGCGCGAUAGCGCCAACGUUCUCAACUAUGACACGCAAAACGCGUGCUCCGUUGAAUGGAGUUUAUCAUG
# Variants of: B1
# Test: polymerase ribozyme fitness, log enrichment relative to wild type (log ratio); higher = more active; in vitro selection for triplet polymerase activity
# Outline: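 For each subunit of a heterodimeric triplet polymerase ribozyme, a mutant library was built by PCR and transcribed, then taken through a single in vitro selection round in triplicate. Selection involved annealing to a biotinylated primer, the partner subunit and triplets, incubation frozen at −7 °C, gel excision of extended constructs, capture on streptavidin beads and RT-PCR. Genotypes were retained after Illumina sequencing of inputs and outputs only with ≥10 input reads and ≥1 read in each output. Fitness is defined as the logarithm of a genotype's enrichment relative to wild-type enrichment, using inverse-variance-weighted averages across replicates, with the logarithm taken to base 2.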
row,Variant,polymerase ribozyme fitness (log ratio)
1,A28U A73U G84U G100A C125G,≤ -4.2
2,A28C C63U C85U A142C G152U,≤ -4.2
3,A28U A64G A66U A73U G81U C95U C114U C149A,≤ -4.2
4,A28G G42U G50C G59A C95U C99A C125U,≤ -4.2
5,C27U G34A A52G U53A G84U C85G C99U G141A,≤ -4.2
6,A28G U33G G34U G59C U104G C118U,≤ -4.2
7,A28C C96U G100A C105G A119U,≤ -4.2
8,A28C G65U G68A A91U,≤ -4.2
9,A28U A40C C87A,≤ -4.2
10,A28U A37C G42U G67A G86U G124U,≤ -4.2
11,C27U A39U A52G C87U U102G C108A A122G,≤ -4.2
12,C27U G58A G59C C99U U102G A120C C125U A150G,≤ -4.2
13,A28C A47C U101G,≤ -4.2
14,A28G A52C G84A C99G,≤ -4.2
15,A28U A30U C36U C38U U77A U109A G126A,≤ -4.2
16,A28G G92C C99U A115G G143U,≤ -4.2
17,C27U U33A A40U U53A G88A,≤ -4.2
18,A28C A40U U45A U61A,≤ -4.2
19,A28G G50C A60C A73G C85A C125A,≤ -4.2
20,A28G C43G G86U G133A A137U,≤ -4.2
21,C27U C32A A39U C75U A91C A121C G126C,≤ -4.2

row,Variant,polymerase ribozyme fitness (log ratio)
1,A28U A41U G67C C93U G124C U135A,≤ -4.2
2,A28G A40G G50A A52G G65U C96U,-3.77
3,A28G A106C G133U A142C,≤ -4.2
4,C27G G80A C93U C108A A110C G126A,≤ -4.2
5,C27U A37U C125U,-3.74
6,C27U C96A G140C U144G A150U,≤ -4.2
7,A28G U45C C69U C96U,≤ -4.2
8,A28C G34C A91G A106U U134A A150C,≤ -4.2
9,A28C G50A U90G,≤ -4.2
10,A28U A49G C123A,≤ -4.2
11,C27U C54U G58A A106G,-0.532
12,A28C C57U U82C C85G U111G A137U,≤ -4.2
13,C27U U61C A91U,≤ -4.2
14,A28C C87A C125U,≤ -4.2
15,A28C C51A C57A G88A C93G,≤ -4.2
16,A28C A40U U53A C96A,≤ -4.2
17,C27U C35U G46A G80A C85A C103G A122G G133C U148C,≤ -4.2
18,A28C A60U A73G C93A C125U,≤ -4.2
19,C27U C85U,-2.83
20,A28U A40C G46C G59A G67C A113C G143A,≤ -4.2
21,A28C G84U G88C A91G G124U,≤ -4.2

row,Variant,polymerase ribozyme fitness (log ratio)
1,A28C U61A,≤ -4.2
2,C27U A60U,-1.43
3,A28G G42A C76A A91U G117A,≤ -4.2
4,A28C U134A,≤ -4.2
5,C27U U55A G68U C85G,≤ -4.2
6,A28U A40U A49G G88U A91U G92U A113G U148A,≤ -4.2
7,C27U G42A A47G A60G G83U U90G C96G A110C C132G,≤ -4.2
8,A28C U33G U77C U90G C93A U148C G152A,≤ -4.2
9,A28U A106G A107U A119G,≤ -4.2
10,A28C C51U,≤ -4.2
11,A28C A121U,≤ -4.2
12,A28G C85G A150C,≤ -4.2
13,C27U A37C G100C,≤ -4.2
14,A28G A60C G67U C85U U90C C108A C131A G140U A150G,≤ -4.2
15,C27U A41C G59A C79G G83U,≤ -4.2
16,A28U A40C U44A C57U A98U G100A A107G,≤ -4.2
17,A28G C79G C85U A115C U151A,≤ -4.2
18,C27U U44A G46A C54A C116G A147U,≤ -4.2
19,C27G U53A G67C G83C G88U U90G A119C G143C,≤ -4.2
20,A28U A47U C57U G58C C99A,≤ -4.2
21,C27G U33C G46C C114U,≤ -4.2

row,Variant,polymerase ribozyme fitness (log ratio)
1,C27U U33G C95U,-3.46
2,A28U A73U C95U A121G,≤ -4.2
3,A28G U56A G59U G92C C108A,≤ -4.2
4,A28U A41C C75U G81A C103G C149G,≤ -4.2
5,A28U C57A A60G A122C G133U,≤ -4.2
6,C27U A37C C51U C57U C95U C125A,-4.06
7,C27U U55A C99G A138G,≤ -4.2
8,C27U A40G G83A U148G,≤ -4.2
9,C27U G50C G65A A66C U78G C85U A115G,≤ -4.2
10,A28G G68A C132A G143C A150G,≤ -4.2
11,C27U U31C G34C C75A G86C A91U,≤ -4.2
12,A28C C75U C85U A91U G128A,≤ -4.2
13,A28C C87U G94A C96U C103A C108A C125A,≤ -4.2
14,C27U U31G U55G G94C A113C,≤ -4.2
15,A28C G74A,≤ -4.2
16,A28C G34A C38G C72U C76A C96G U151A,≤ -4.2
17,A28C U82G,≤ -4.2
18,A28C G67A C75U U82C G128U,≤ -4.2
19,A28G A37C U61A C63A C76A G80A C96U,≤ -4.2
20,A28U A60C C87A C96U,≤ -4.2
